Structures can show the parent of a compound that is named as a salt. Whole data set: some 2,800 compounds, median “cell viability relative to vehicle” near 1.1, cut for the lowest 2% near 0.19. The list shows a part of the results.
tested on: NCI-H2228 parental; assay: cell viability relative to vehicle (fraction of vehicle); NCI-H2228 is an ALK-positive lung cancer line and DTP means drug-tolerant persister; higher = less growth inhibition; details: 100 nM; treatment time 6 days
How it was run: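 Each value is viability relative to vehicle-treated cells, measured as ATP with the CellTiter-Glo 3D Cell Viability Assay. Parental NCI-H2228 cells and drug-tolerant persisters (1000 nM targeted drug, 13 days) in 384-well plates received the 3114-agent TargetMol anti-cancer compound library at 100 nM, or DMSO, and were read 6 days later.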

Structure (SMILES)	cell viability
CC(COc1ccccc1)N(CCCl)Cc1ccccc1 (centres undefined) [Phenoxybenzamine hydrochloride]	1
Nc1ncn([C@@H]2O[C@H](CO)[C@@H](O)[C@H]2O)c(=O)n1 [5-Azacytidine]	0.878
COc1ccc(CN(CCN(C)C)c2ccccn2)cc1 [Pyrilamine maleate]	1.05
CC(=O)Nc1cccc2c1c(Sc1ccc(Cl)cc1)c(C)n2CC(=O)O	1.1
CCCCCCCCCCCCCCCCCCOP(=O)([O-])OC1CC[N+](C)(C)CC1 [Perifosine]	1.09
O=C(Nc1ccc(OC(F)(F)F)cc1)c1sccc1NCc1ccnc2ccccc12	1.14
Cc1c(-c2ccnn2C)cc(C(=O)NCc2ccc(S(C)(=O)=O)cn2)c(=O)n1-c1cccc(C(F)(F)F)c1 [Alvelestat]	1.12
CC(=O)c1ccc(S(=O)(=O)NC(=O)NC2CCCCC2)cc1 [Acetohexamide]	1.05
CCC(N)(C(=O)O)c1ccc(C(=O)O)cc1 (centres undefined)	0.985
COc1cc(CCC(=O)CC(=O)CCc2ccc(O)c(OC)c2)ccc1O [Tetrahydro Curcumin]	1.03
COc1cc2c(Oc3ccc4[nH]c(C)cc4c3F)ccnc2cc1OCC1(N)CC1 [Anlotinib Dihydrochloride]	0.907
COc1cc2c(Oc3ccc4[nH]c(C)cc4c3F)ccnc2cc1OCC1(N)CC1 [Anlotinib]	1.11
CC(C)(C)c1[nH]cnc1/C=c1\[nH]c(=O)/c(=C/c2ccccc2)[nH]c1=O [Plinabulin]	0.29
Cn1c(=O)c2nc[nH]c2n(C)c1=O [Theophylline]	1
CC(=O)O[C@H](CC=C(C)C)C1=CC(=O)c2c(O)ccc(O)c2C1=O [Acetyl shikonin]	1.05
COc1cc2c(cc1OC)[C@@H](Cc1ccc(Oc3cc(C[C@@H]4c5cc(OC)c(OC)cc5CCN4C)ccc3O)cc1)N(C)CC2 [Dauricine]	1.09
COC(=O)c1cc(O)c(O)c(O)c1 [Methyl gallate]	1.18
c1ccc(C2CN3CCSC3=N2)cc1 (centres undefined) [Tetramisole hydrochloride]	1.2
N#Cc1ccc(-c2c(-c3ncn[nH]3)sc(N3CCOCC3)c2C#N)c(F)c1	0.999
NCCCC[C@H](N[C@@H](CCc1ccccc1)C(=O)O)C(=O)N1CCC[C@H]1C(=O)O [Lisinopril dihydrate]	1.21
O=C1Nc2ccc(CN3C(=O)CSC3=O)cc2/C1=C/c1cc(CN2CCOCC2)c[nH]1	1.06
CC(C)(C)NC[C@H](O)COc1nsnc1N1CCOCC1 [Timolol Maleate]	1.13
Cc1ccc(C(=O)Nc2ccc(CN3CCN(C)CC3)c(C(F)(F)F)c2)cc1C#Cc1cnc2cccnn12 [Ponatinib]	1.19
CNC(=O)c1ccc(Nc2nc(OC3CCCC3)c3c(-c4ccc5nc(C)oc5c4)c[nH]c3n2)c(OC)c1	0.967
O=C(Nc1cccc2c(=O)cc(-c3nnn[nH]3)oc12)c1ccc(OCCCCc2ccccc2)cc1 [Pranlukast]	1.1

Structure (SMILES)	cell viability
COc1ccccc1C(=O)Nc1cc2c(cc1N1CCCCC1)n(C)c(=O)n2C	1.04
CO/N=C(\C(=O)N[C@@H]1C(=O)N2C(C(=O)O)=C(CSc3nc(=O)c(O)nn3C)CS[C@H]12)c1csc(N)n1 [Ceftriaxone sodium]	1.02
COc1cccc(NC(=O)/C=C/c2ccc(Cl)cc2)c1	1.12
COc1cc(OC)c2c(=O)[nH]c(-c3cc(C)c(OCCO)c(C)c3)nc2c1 [Apabetalone]	1.09
O=C(c1cccc(Cl)c1F)N1CCN(Cc2cccc(Nc3nccs3)n2)CC1	0.531
CC(C)[C@H]1C(=O)N[C@@H](CCCNC(=N)N)C(=O)NCC(=O)N[C@@H](CC(=O)O)C(=O)N[C@H](Cc2ccccc2)C(=O)N1C [Cilengitide]	0.875
C[C@@H]1O[C@@H](Oc2c(-c3cc(O)c(O)c(O)c3)oc3cc(O)cc(O)c3c2=O)[C@H](O)[C@H](O)[C@H]1O [Myricetrin]	1.06
CC1(C)Cc2c(sc(NC(=O)c3ccn[nH]3)c2C(N)=O)C(C)(C)O1	1.02
O=C(Nc1c[nH]nc1-c1nc2ccc(CN3CCOCC3)cc2[nH]1)NC1CC1	0.106
Cn1cc(-c2ccc(F)c(C(F)(F)F)c2)nc1C1CCN(c2ncnc3[nH]ncc23)CC1	1.04
CCOC(=O)[C@H](CCc1ccccc1)N[C@H]1CCc2ccccc2N(CC(=O)O)C1=O [Benazepril hydrochloride]	1.04
CN(Cc1ccccc1)c1ccc2cc(C(=O)O)c(=O)oc2c1	0.827
CN1CCCC(n2nc(Cc3ccc(Cl)cc3)c3ccccc3c2=O)CC1 (centres undefined) [Azelastine hydrochloride]	1.05
COc1cc(OC)c(C=C2C(=O)Nc3ccccc32)c(OC)c1	0.829
CC(C)C[C@H](NC(=O)[C@H](CCc1ccccc1)NC(=O)CN1CCOCC1)C(=O)N[C@@H](Cc1ccccc1)C(=O)N[C@@H](CC(C)C)C(=O)[C@@]1(C)CO1 [Carfilzomib]	0.0349
COc1ccc(C2(CNC(=O)c3ccc(NC(=O)c4ccco4)cc3)CCOCC2)cc1	1.06
O=S(=O)(c1ccccc1)c1cnc2c(N3CCNCC3)cccc2c1	1.09
O=C(O[C@H]1CN2CCC1CC2)N1CCc2ccccc2[C@@H]1c1ccccc1 [Solifenacin succinate]	1.25
NC(=O)N/N=C/c1ccc([N+](=O)[O-])o1 [Furacilin]	1.05
CN(NC(=O)CC(=O)NN(C)C(=S)c1ccccc1)C(=S)c1ccccc1 [Elesclomol]	0.631
CO[C@@H]1[C@@H](OC(N)=O)[C@@H](O)[C@H](Oc2ccc3c(O)c(NC(=O)c4ccc(O)c(CC=C(C)C)c4)c(=O)oc3c2C)OC1(C)C [Novobiocin Sodium]	1.1
CCCCc1nc2ccc(NC(=O)NC3CCCCC3)cc2n1Cc1ccc(-c2ccccc2C(=O)O)cc1	1.08
C[C@@]1(CO)C[C@@H](O)C[C@@]2(C)[C@@H]3CC[C@](C)([C@@H](O)CO)C=C3CC[C@H]12 [Kirenol]	1.1
C[C@@H]1C(=O)O[C@H](C)[C@H]1C[C@@H](O)[C@](C)(O)[C@H]1CC[C@@]2(O)C3=CC(=O)[C@@H]4C[C@@H](O)[C@@H](O)C[C@]4(C)[C@H]3CC[C@]12C [Cyasterone]	1.15
C[C@H]1O[C@@H](O[C@H]2CC[C@@]3(C)[C@@H](CC[C@]4(C)[C@@H]3C=C[C@]35OC[C@@]6(CCC(C)(C)C[C@H]63)[C@@H](O)C[C@]54C)[C@]2(C)CO)[C@H](O)[C@@H](O[C@@H]2O[C@H](CO)[C@@H](O)[C@H](O)[C@H]2O)[C@H]1O [Saikosaponin A]	1.11

Structure (SMILES)	cell viability
CC(C)=CCc1c(O)cc2oc3cc(O)c(O)c(CC=C(C)C)c3c(=O)c2c1O [gamma-Mangostin]	0.9
N#CCC1(n2cc(-c3ncnc4[nH]ccc34)cn2)CN(C2CCN(C(=O)c3ccnc(C(F)(F)F)c3F)CC2)C1 [Itacitinib]	1.13
O=C(c1ccc(C(=O)N2CCC(N3CCCC3)CC2)c(Nc2ccccc2)c1)N1CCC(N2CCCC2)CC1	1.16
OC[C@H]1O[C@@H](Oc2ccc(O)cc2)[C@H](O)[C@@H](O)[C@@H]1O [Arbutin]	1.1
OCCN1CCN(CCCN2c3ccccc3Sc3ccc(Cl)cc32)CC1 [Perphenazine]	0.862
COc1ccc(C[C@@H]2c3cc(Oc4cc(C[C@@H]5c6cc(O)c(OC)cc6CCN5C)ccc4O)c(OC)cc3CCN2C)cc1 [Isoliensinine]	1.05
CN(C)CCc1c[nH]c2ccc(Cn3cncn3)cc12 [Rizatriptan benzoate]	0.954
CCCCNNC(=O)c1ccc(Br)cc1	1.07
Cn1ncc(Cl)c1-c1cc(C(=O)N[C@H](CN)Cc2ccc(F)c(F)c2)oc1Cl [Uprosertib]	0.911
Fc1ccc(-c2nc3n(c2-c2ccncc2)CCS3)cc1	1.23
O=c1c(-c2ccc(O)cc2)coc2cc(O[C@@H]3O[C@H](CO)[C@@H](O)[C@H](O)[C@H]3O)cc(O)c12 [Genistin]	1.1
C[C@H](NC(=O)CCC(F)(F)F)C(=O)N[C@@H]1C(=O)N(CCO)c2ncccc2-c2ccccc21 [Crenigacestat]	1.05
Nc1ccc(C(=O)NCC(=O)O)cc1 [4-Aminohippuric Acid]	1.38
N=C(N)NC(=N)N1CCOCC1 [Moroxydine hydrochloride]	1.15
O=C(Nc1ncc([N+](=O)[O-])s1)c1ccccc1O [Tizoxanide]	0.937
CCOC(=O)c1ccc(OCCC2CCN(c3ccc(C)nn3)CC2)cc1 [Pirodavir]	1.04
CC(=O)Oc1cccc2c1C(=O)c1c(OC(C)=O)cc(C(=O)O)cc1C2=O [Diacerein]	1.1
CCN(CC)Cc1ccc2cc(COC(=O)Nc3ccc(C(=O)NO)cc3)ccc2c1 [Givinostat hydrochloride monohydrate]	0.693
CC(C)(C#N)c1ccc(N2C(=O)OCc3cnc4ccc(-c5cnc6ccccc6c5)cc4c32)cc1	1.06
CC(C)C[C@@H](C=O)NC(=O)[C@H](CC(C)C)NC(=O)[C@H](CC(C)C)NC(=O)OCc1ccccc1	0.3
COC1=CC(c2cc3ccccc3[nH]2)=N/C1=C\c1[nH]c(C)cc1C [Obatoclax Mesylate]	1.04
N[C@H]1C(O)O[C@H](CO)[C@@H](O)[C@@H]1O (some centres undefined) [Glucosamine]	1.11
COC(=O)C1=CO[C@@H](O[C@@H]2O[C@H](CO)[C@@H](O)[C@H](O)[C@H]2O)[C@@H]2[C@@H](C)[C@@H](O)C[C@H]12 [Loganin]	1.06
Cc1ccc(S(=O)(=O)NC(=O)NN2CC3CCCC3C2)cc1 (centres undefined) [Gliclazide]	1.28

From the supplement of paper PMC10600219
